Results as given in the supplement of paper PMC7125110.
± gives the standard error. Variants at the background level are over-represented here.

B1: glmS ribozyme (parent)
chain: AUAAAAGCGCCAGAACUACAGAAAUGUAGUUGACGAGGAGGAGGUUUAUCGAAUUUUCGGCGGAUGCCUCCAAA

Variants of: B1
Test: self-cleavage kobs at 10000 uM GlcN6P; higher = faster cleavage; RNA array
Conditions: with glucosamine-6-phosphate
Method in brief: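 Weighted Michaelis–Menten fits across concentrations supplied kcat and KM, based on kobs from one- or two-exponential decay fits to normalised per-tile medians. The data came from barcoded ribozyme variants transcribed in situ by E. coli RNA polymerase on sequenced MiSeq chips and tracked at 37 °C by a hybridised Cy3 probe. Glucosamine-6-phosphate (40 μM to 10 mM) in HEPES/KCl/Mg(OAc)2 buffer was flowed in.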

Variant	self-cleavage kobs at 10000 uM GlcN6P
AUAAAAGCGCCAGAACUACAGAAAUGUAGUUUACGAGUAGGAGGUUUAUCGAAUUUUCGGCGGAUGCCCCCAAA [G32U G38U U69C]	< 1e-05 s⁻¹
AUAAAAGCGCCAGAACUACAGAAAUGUAGUUUACGAGGAGGAGGUGUAUCGAAUUUUCGGCUGAUGCCUGCAAA [G32U U46G G62U C70G]	< 1e-05 s⁻¹
AUAAAAGCGCCAGAACUACAGAAAUGUAGUUGCCGAGGAGGAGGUUUAUCGAAUUUUCGGCGGUUACCCCCAAA [A33C A64U G66A U69C]	< 1e-05 s⁻¹
AUAAAAGCGCCAGAACUACAGAAAUGUAGUUGUCUAGGAUGAGGUUUAUCGAAUUUUCGGCGGAUGCCUCCAAA [A33U G35U G40U]	< 1e-05 s⁻¹
AUAAAAGCGCCAGAACUACAGAAAUGUAGUUGAAGCGGAGGAGGUUUAUCGAAUUUUCGGCGGAUUCCUCAAAA [C34A A36C G66U C71A]	< 1e-05 s⁻¹
AUAAAAGCGCCAGAACUACAGAAAUGUAGUUGAAGAGGCCGAGGUUUCUCGAAUUUUCGGCGGAUGCCUCCAAA [C34A A39C G40C A48C]	< 1e-05 s⁻¹
AUAAAAGCGCCAGAACUACAGAAAUGUAGUUGAGGAAGAGGAGGUUUAUCGAAUUUUCGGCCGUUGCCUCCAAA [C34G G37A G62C A64U]	< 1e-05 s⁻¹
AUAAAAGCGCCAGAACUACAGAAAUGUAGUUGACCAUGAGGAGGUUUAUCGAAUUUUCGGCGGAUGCGUCCAAA [G35C G37U C68G]	7.56e-05 ± 2.4e-05 s⁻¹
AUAAAAGCGCCAGAACUACAGAAAUGUAGUUGACUAGGAGGAGGUUUUUCGAAUUUUCGGCGGAUGCCGUCAAA [G35U A48U U69G C70U]	< 1e-05 s⁻¹
AUAAAAGCGCCAGAACUACAGAAAUGUAGUUGACUAGGAAGAGCUUUAUCGAAUUUUCGGCGGAUGCCUCCAAA [G35U G40A G44C]	< 1e-05 s⁻¹
AUAAAAGCGCCAGAACUACAGAAAUGUAGUUGACUAGGAGGAGGCUUAUCGAAUUUUCGGCGGAUGCCUGCAAA [G35U U45C C70G]	< 1e-05 s⁻¹
AUAAAAGCGCCAGAACUACAGAAAUGUAGUUGACGCGUAGGAGGUUCAUCCAAUUUUCGGCGGAUGCCUCCAAA [A36C G38U U47C G51C]	< 1e-05 s⁻¹
AUAAAAGCGCCAGAACUACAGAAAUGUAGUUGACGCGGAGUAGGUUUAUGGAAUUUUCGUGGGAUGCCUCCAAA [A36C G41U C50G G60U C61G]	< 1e-05 s⁻¹
AUAAAAGCGCCAGAACUACAGAAAUGUAGUUGACGAAGAGGAGGUUUAUCGAAUUUUGGGCGGAUGGCUCCAAA [G37A C58G C67G]	< 1e-05 s⁻¹
AUAAAAGCGCCAGAACUACAGAAAUGUAGUUGACGAAGAGGAGGUUUAUCGAAUUUUCGGCGCAUGCCUCGAAA [G37A G63C C71G]	< 1e-05 s⁻¹
AUAAAAGCGCCAGAACUACAGAAAUGUAGUUGACGACGAGGAGGAUUAUCGAACUUUCGGCGCAUGCCUCCAAA [G37C U45A U54C G63C]	< 1e-05 s⁻¹
AUAAAAGCGCCAGAACUACAGAAAUGUAGUUGACGAGAAGGAGGUUUAACGAAUUUUCGGCGGAUGCCUCUAAA [G38A U49A C71U]	< 1e-05 s⁻¹
AUAAAAGCGCCAGAACUACAGAAAUGUAGUUGACGAGCAGGAGGUUUAUCGACUUUUCGGCGGGUGCCUCCAAA [G38C A53C A64G]	< 1e-05 s⁻¹
AUAAAAGCGCCAGAACUACAGAAAUGUAGUUGACGAGCAGGAUGUUUAUCGAAUUUUCGGCGGAUACCUCCAAA [G38C G43U G66A]	< 1e-05 s⁻¹
AUAAAAGCGCCAGAACUACAGAAAUGUAGUUGACGAGUAAGAGGUUUAUCGAAUUUUCGGCGGAUGCAUCUAAA [G38U G40A C68A C71U]	< 1e-05 s⁻¹

Variant	self-cleavage kobs at 10000 uM GlcN6P
AUAAAAGCGCCAGAACUACAGAAAUGUAGUUGACGAGGAAGAGGUUUAUAGAAUUAUCGGCGGAUGCCUCCAAA [G40A C50A U56A]	< 1e-05 s⁻¹
AUAAAAGCGCCAGAACUACAGAAAUGUAGUUGACGAGGAAGAGGCUUAUCGAAUUUUCGGCGGAGGGCUCCAAA [G40A U45C U65G C67G]	0.00034 ± 0.00012 s⁻¹
AUAAAAGCGCCAGAACUACAGAAAUGUAGUUGACGAGGACGAGGUUUAUCGAAUUUUCGGCGGAUCCUUCCAAA [G40C G66C C68U]	< 1e-05 s⁻¹
AUAAAAGCGCCAGAACUACAGAAAUGUAGUUGACGAGGAGAAGGUUUAUUGAAUGUUCGGCGGAUGCCUCCAAA [G41A C50U U55G]	< 1e-05 s⁻¹
AUAAAAGCGCCAGAACUACAGAAAUGUAGUUGACGAGGAGUUGGUUUAUCGAAUCUUCGGCGGAUGCCUGCAAA [G41U A42U U55C C70G]	0.000238 ± 4.7e-05 s⁻¹
AUAAAAGCGCCAGAACUACAGAAAUGUAGUUGACGAGGAGGACGUUUAUGGAAUUUUCGGCGGAUGCCUCCAAA [G43C C50G]	< 1e-05 s⁻¹
AUAAAAGCGCCAGAACUACAGAAAUGUAGUUGACGAGGAGGACGUUUAUCCCAUUAUCGGCGGCUGCCUCCAAA [G43C G51C A52C U56A A64C]	< 1e-05 s⁻¹
AUAAAAGCGCCAGAACUACAGAAAUGUAGUUGACGAGGAGGACGCUUAUCGAAUUUUCGGCGGAUGCCUCAAAA [G43C U45C C71A]	< 1e-05 s⁻¹
AUAAAAGCGCCAGAACUACAGAAAUGUAGUUGACGAGGAGGAGAUUUAUCGAAUUUUUGGCCGAUGCCUCAAAA [G44A C58U G62C C71A]	< 1e-05 s⁻¹
AUAAAAGCGCCAGAACUACAGAAAUGUAGUUGACGAGGAGGAGAUUUAUCGAAUUUUCGGCCGAUCCCUCCAAA [G44A G62C G66C]	< 1e-05 s⁻¹
AUAAAAGCGCCAGAACUACAGAAAUGUAGUUGACGAGGAGGAGUUUUAUCGAAUUUUUGGCUGACGCCUCCAAA [G44U C58U G62U U65C]	< 1e-05 s⁻¹
AUAAAAGCGCCAGAACUACAGAAAUGUAGUUGACGAGGAGGAGUUUUAUCGAAUUUUCGGCCGAUGCUUCCAAA [G44U G62C C68U]	< 1e-05 s⁻¹
AUAAAAGCGCCAGAACUACAGAAAUGUAGUUGACGAGGAGGAGGGUUAUCGAAUUUUCAGCGGAUGCCUCCAAA [U45G G59A]	7.24e-05 ± 1.4e-05 s⁻¹
AUAAAAGCGCCAGAACUACAGAAAUGUAGUUGACGAGGAGGAGGUUUUUCGAAUUUUCGGCGGAUGCAUGCAAA [A48U C68A C70G]	< 1e-05 s⁻¹
AUAAAAGCGCCAGAACUACAGAAAUGUAGUUGACGAGGAGGAGGUUUAUUGAAUUCUCGGCGGAUGGCUCCAAA [C50U U56C C67G]	< 1e-05 s⁻¹
AUAAAAGCGCCAGAACUACAGAAAUGUAGUUGACGAGGAGGAGGUUUAUCUAAUUUUCGGGGGAGGCCUCCAAA [G51U C61G U65G]	< 1e-05 s⁻¹
AUAAAAGCGCCAGAACUACAGAAAUGUAGUUGACGAGGAGGAGGUUUAUCGGAUUUUCGGAGGAAGCCUCCAAA [A52G C61A U65A]	< 1e-05 s⁻¹
AUAAAAGCGCCAGAACUACAGAAAUGUAGUUGACGAGGAGGAGGUUUAUCGAGUUUGCGGCGGAUGGAUCCAAA [A53G U57G C67G C68A]	< 1e-05 s⁻¹
AUAAAAGCGCCAGAACUACAGAAAUGUAGUUGACGAGGAGGAGGUUUAUCGAUUUUUCGGAGGAUGCCUCUAAA [A53U C61A C71U]	< 1e-05 s⁻¹
AUAAAAGCGCCAGAACUACAGAAAUGUAGUUGACGAGGAGGAGGUUUAUCGAAUUUUCAGCUGCUGCCUCCAAA [G59A G62U A64C]	< 1e-05 s⁻¹
